Assay results taken from patent US20120178908A1 (Novo Nordisk, published 2012).

T1: TLT-1 18-188 relipidated in 20:80 PS:PC vesicles (human, UniProt Q86YW5 18-188)
T1 sequence: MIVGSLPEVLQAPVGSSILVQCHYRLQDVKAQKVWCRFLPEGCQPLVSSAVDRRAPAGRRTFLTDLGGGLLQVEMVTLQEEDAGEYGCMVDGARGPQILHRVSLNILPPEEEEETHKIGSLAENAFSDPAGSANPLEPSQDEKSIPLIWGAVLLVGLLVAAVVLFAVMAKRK

T2: TLT-1 receptor on the surface of activated human platelets (human, UniProt Q86YW5 16-311)
T2 sequence: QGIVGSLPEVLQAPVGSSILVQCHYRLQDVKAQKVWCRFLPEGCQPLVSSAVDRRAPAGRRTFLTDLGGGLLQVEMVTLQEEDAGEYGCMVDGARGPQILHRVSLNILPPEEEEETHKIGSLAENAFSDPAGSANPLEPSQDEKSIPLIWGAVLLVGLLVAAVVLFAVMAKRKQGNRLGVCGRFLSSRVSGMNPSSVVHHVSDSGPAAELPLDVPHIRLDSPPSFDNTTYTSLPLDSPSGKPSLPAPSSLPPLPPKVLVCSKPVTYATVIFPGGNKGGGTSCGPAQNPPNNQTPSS


Tests used:
[1] = molecular target: T1, TLT-1 18-188 relipidated in 20:80 PS:PC …; assay: cell-based or functional assay
[2] = molecular target: T2, TLT-1 receptor on the surface of …; assay: cell-based or functional assay

FVII-mediated FXa generation % Activity lipidated TLT-1 [1] | FVIIa-mediated FXa generation % Activity lipidated TLT-1 [1] | FVII-mediated FXa generation % Activity activated plts (n 1) [2] | FVIIa-mediated FXa generation % Activity activated plts (n 1) [2] | Binder
36% | 54% | 38% | 28% | heterodimer#3 LC/HC-his/Fc-sTF (other) light chain: DVVMTQTPLSLPVSLGDQASISCRSSQSLVHRNGNTYFHWALQKPGQSPKLLIYKVSNRFSGVPDRFSGSGSGTDFTLKISRVEAEDLGVYFCSQSTHVPYTFGGGTKLEIKRTVAAPSVFIFPPSDEQLKSGTASVVCLLNNFYPREAKVQWKVDNALQSGNSQESVTEQDSKDSTYSLSSTLTLSKADYEKHKVYACEVTHQGLSSPVTKSFNRGEC heavy chain-His6: EVKLLESGGGLVQPGGSLKLSCAASGFDFSRYWMTWVRQAPGKGLEWIGEINPDSSTINYNPSLKDKFIISRDNAKNTLYLQMSEVRSEDTALYYCASGVFTSWGQGTLVTVSAASTKGPSVFPLAPCSRSTSESTAALGCLVKDYFPEPVTVSWNSGALTSGVHTFPAVLQSSGLYSLSSVVTVPSSSLGTKTYTCNVDHKPSNTKVDKRV[human IgG4 Fc with S228P (EU numbers) and a few adjoining residues omitted] hinge-CH2-CH3-linker-TF: [human IgG4 Fc with S228P (EU numbers) omitted]GSGGGGSGGGGSGGGGSSGTTNTVAAYNLTWKSTNFKTILEWEPKPVNQVYTVQISTKSGDWKSKCFYTTDTECDLTDEIVKDVKQTYLARVFSYPAGNVESTGSAGEPLYENSPEFTPYLETNLGQPTIQSFEQVGTKVNVTVEDERTLVRRNNTFLSLRDVFGKDLIYTLYYWKSSSSGKKTAKTNTNEFLIDVDKGENYCFSVQAVIPSRTVNRKSTDSPVECMGQEKGEFRE
48% | 74% | 31% | 30% | heterodimer#5 LC-sTF/HC/Fc-his (other) light chain-linker-TF: DVVMTQTPLSLPVSLGDQASISCRSSQSLVHRNGNTYFHWALQKPGQSPKLLIYKVSNRFSGVPDRFSGSGSGTDFTLKISRVEAEDLGVYFCSQSTHVPYTFGGGTKLEIKRTVAAPSVFIFPPSDEQLKSGTASVVCLLNNFYPREAKVQWKVDNALQSGNSQESVTEQDSKDSTYSLSSTLTLSKADYEKHKVYACEVTHQGLSSPVTKSFNRGECGSGGGGSGGGGSGGGGSSGTTNTVAAYNLTWKSTNFKTILEWEPKPVNQVYTVQISTKSGDWKSKCFYTTDTECDLTDEIVKDVKQTYLARVFSYPAGNVESTGSAGEPLYENSPEFTPYLETNLGQPTIQSFEQVGTKVNVTVEDERTLVRRNNTFLSLRDVFGKDLIYTLYYWKSSSSGKKTAKTNTNEFLIDVDKGENYCFSVQAVIPSRTVNRKSTDSPVECMGQEKGEFRE heavy chain: EVKLLESGGGLVQPGGSLKLSCAASGFDFSRYWMTWVRQAPGKGLEWIGEINPDSSTINYNPSLKDKFIISRDNAKNTLYLQMSEVRSEDTALYYCASGVFTSWGQGTLVTVSAASTKGPSVFPLAPCSRSTSESTAALGCLVKDYFPEPVTVSWNSGALTSGVHTFPAVLQSSGLYSLSSVVTVPSSSLGTKTYTCNVDHKPSNTKVDKRV[human IgG4 Fc with S228P (EU numbers) omitted] hinge-CH2-CH3-His6: [human IgG4 Fc with S228P (EU numbers) and a few adjoining residues omitted]
